Results: PubChem BioAssay AID1347120 (National Center for Advancing Translational Sciences (NCATS), 2019)
Hit rate of the full screen: of about 390,000 compounds, about 930 (0.24%) were called active. The shares of active, inactive and inconclusive entries below differ from those in the screen. Calls follow the shape of the dose curve; as a rule, active = well fitted activation curve with a large enough effect; inconclusive = small, poorly fitted or top-dose-only effect; inactive = no such curve, though single readings can be large or run the other way. Where the call is inconclusive, the potency comes from a doubtful curve fit.

Experiment: qHTS for Suppressors of FUS Proteinopathy: Primary screen using FUS-linked yeast assay; also: nearly all actives have a fitted effect of over 55% in size;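 as to growth rescue (activation): plate controls were DMSO vehicle for no effect and reference control for full effect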
Details: S. cerevisiae FUS-expressing, OD600, 24 h; Potency: growth rescue; growth rescue (activation): at 76.6 µM (top of the series)
How it was run: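 Read-out: OD at 600 nm after 24hr at 30C, reporting rescue of FUS-induced yeast toxicity. Cells at OD 0.005 in galactose (2%) minimal medium; compounds tested in a dilution series; CP55940 titration from 92uM final as control.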
Potency is read from the fitted curve at half-maximal effect; tags tell the direction and shape of the fitted curve.

Compound	Potency	growth rescue (activation)
Cc1ccc(S(=O)(=O)Nc2cccc3c2O[C@H](CN(C)Cc2ccc(-c4ccccc4)cc2)[C@@H](C)CN([C@H](C)CO)C3=O)cc1	inconclusive: 11.2 µM [activator, partial curve, poor fit]	
COc1cc(/C=N/NC(N)=S)ccc1OCC(=O)Nc1ccc(C)c(C)c1	inconclusive: 39.8 µM [activator, partial curve]	
COc1ccc(CCN2C(=O)CN(C3CCCCCC3)C(=O)C2c2ccc(Cl)cc2)cc1OC (stereo not given)		inactive: 29.9%
COc1cccc(N2C(=O)[C@H]3C(C(=O)c4cnccn4)=NN[C@H]3C2=O)c1	inconclusive: 31.6 µM [activator, single point]	
O=C(Cn1ncc2c3ccccc3n(Cc3ccccc3)c2c1=O)NCCCN1CCCCC1		inactive: -9.54%
C#CCNC(=O)C[C@H]1C[C@@]2(C(=O)OC)C(=C[C@H](C(C)C)O[C@@H]2C2CC2)N(Cc2cccc3ccccc23)C1=O	inconclusive: 25.1 µM [activator, partial curve]	
COc1ccccc1C1C(C(=O)Nc2ccccc2)=C(C)Nc2nc(-c3ccccc3)nn21 (stereo not given)		inactive: -3.89%
COc1ccccc1N1CCN(Cc2nc(-c3cc(OC)c(OC)c(OC)c3)no2)CC1		inactive: 23.8%
Cc1c(Cl)ccc2c1NC(=O)C21NC(CCC(N)=O)[C@H]2C(=O)N(c3ccc(Cl)cc3)C(=O)[C@H]21 (stereo not given in full)	inconclusive: 56.2 µM [activator, partial curve, poor fit]	
CCOc1ccccc1-c1nc2c([nH]1)c(=O)n(C)c(=O)n2C		inactive: -15.6%
CC(C)(C)c1ccc(NC(=O)c2ccc(=O)[nH]n2)cc1		inactive: 9.02%
O=C(c1ccc2c(c1)OCCO2)C1CCN(C(=O)c2ccc(F)cc2)CC1		inactive: 32.2%
O=C(Nc1ccc(N2C(=O)C3C4C=CC(C4)C3C2=O)cc1)Nc1nnc(C(F)(F)F)s1 (stereo not given)		inactive: 2.76%
Cc1nn(CC(=O)N2CCOCC2)c(=O)c2nn(-c3ccccc3)c(C)c12		inactive: 17.9%
O=C(N/N=C/c1ccccn1)c1ccc(NC(=O)c2ccccc2Cl)cc1	inconclusive: 22.4 µM [activator, partial curve, poor fit]	
Cc1ccc2ncc(C(=O)c3ccc(C)c(C)c3)c(S(=O)(=O)c3ccccc3)c2c1	inconclusive: 35.5 µM [activator, single point]	
COC(=O)[C@@]1(Cc2ccc(OC)cc2)[C@H]2c3cc(C(=O)N4CCCC4)n(CCc4c[nH]c5ccccc45)c3C[C@H]2CN1C(=O)c1ccccc1	inconclusive: 35.5 µM [activator, partial curve, poor fit]	
Cc1sc2ncnc(SCC(=O)NC(=O)NCc3ccco3)c2c1C	inconclusive: 28.2 µM [activator, single point]	
NNc1ccc(Cc2ccc(Cl)cc2Cl)nn1		inactive: 18.9%
CCc1ccccc1NC(=O)N1CC(C)Sc2ccccc21 (stereo not given)		inactive: 4.79%

Compound	Potency	growth rescue (activation)
C/C=C\C=C\C(=O)Nc1cccc(C2=NOC3(C2)C[C@@H](C(N)=O)N(C(=O)C(c2ccccc2)c2ccccc2)C3)c1 (stereo not given in full)	active: 31.6 µM	
CC(=O)c1c(C)[nH]c(C(=O)OC(C)C(=O)Nc2ccc(C)c(S(=O)(=O)N3CCOCC3)c2)c1C (stereo not given)		inactive: 16.3%
Cn1nc(C(C)(C)C)cc1NC(=O)C1(C)CCN1C(=O)Cc1ccc(-c2ccccc2)cc1 (stereo not given)	inconclusive: 35.5 µM [activator, single point]	
O=C(Nc1cccc(OC(F)(F)F)c1)C1Cc2c(-c3ccccc3Oc3ccccc3)ccnc2O1 (stereo not given)	inconclusive: 17.8 µM [activator, partial curve]	
Nc1ccc(N2CCCCC2)cc1N1CCCCC1	inconclusive: 3.98 µM [activator, full curve]	
Cc1nn(-c2ccccc2)c(C)c1/C=N/NC(=O)c1cc(-c2ccc(Cl)s2)[nH]n1	inconclusive: 50.1 µM [activator, single point]	
CCCC(=O)c1ccc(N2CCC(C)CC2)c(F)c1	inconclusive: 11.2 µM [activator, partial curve]	
COc1ccc(-c2nc(Cn3c(SCc4cccc(C(F)(F)F)c4)nc4cccnc43)c(C)o2)cc1OC	inconclusive: 39.8 µM [activator, partial curve, poor fit]	
COc1ccc(OC)c(CNC(=O)C2CCCCN2S(=O)(=O)c2ccc(F)cc2)c1 (stereo not given)		inactive: 33.1%
Cc1cccc(NC(=O)CC2CCC2)c1		inconclusive: 45.1% [activator]
COc1ccc(S(=O)(=O)Nc2cc3c(C(=O)OC(C)C)c(C)oc3c3ccccc23)cc1	inconclusive: 39.8 µM [activator, single point]	
COc1ccc(-c2ccc(CCC(=O)O)n2-c2ccccc2O)cc1	inconclusive: 22.4 µM [activator, partial curve, poor fit]	
Cc1cccc(Cn2cc(C(=O)Nc3cc(F)ccc3F)ccc2=O)c1	inconclusive: 50.1 µM [activator, single point]	
COc1ccc(NC(=O)CCCN2C(=O)CN(C)C2=O)cc1Cl		inactive: 13.6%
CCOC(=O)N1CCN(C(=O)CN(C2CCCCC2)S(=O)(=O)c2ccc(Cl)cc2)CC1	inconclusive: 31.6 µM [activator, partial curve, poor fit]	
Cc1cccc(N(CC(=O)NCCSCc2cccc(Cl)c2)S(=O)(=O)c2ccccc2)c1C	inconclusive: 8.91 µM [activator, partial curve]	
Cc1cc(C)c(C(=O)OCC(=O)Nc2cccc(S(=O)(=O)N3CCCCC3)c2)c(C)c1		inactive: 24.4%
O=C(Cc1ccccc1)NCc1ccc2c(c1)OCO2	inconclusive: 44.7 µM [activator, single point]	
O=C(C1=C(O)C(=O)N(CCN2CCOCC2)C1c1cccc(Br)c1)c1cc2ccccc2o1 (stereo not given)	inconclusive: 17.8 µM [activator, partial curve, poor fit]	
COC(=O)[C@]12C[C@H](CC(=O)NCCc3ccccc3OC)C(=O)N(CCc3ccc(OC)c(OC)c3)C1=C[C@H](C(C)(C)C)O[C@@H]2C	inconclusive: 17.8 µM [activator, partial curve, poor fit]	
